# Source: the supplement of paper PMC9446081
# Hit rate of the full screen: of about 39,000 compounds, about 220 (0.56%) showed activity. The list shows a part of the results.
# Tested on: Escherichia coli K-12 BW25113
# Experiment: relative growth (OD600 normalised to plate interquartile mean) (fraction); higher = less growth inhibition, active = 0.2 or less
# Conditions: 50 µM; LB; incubation time: overnight (16-24 h)
# 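Also: static incubation at 37 °C against the wild-type strain, values averaged over two biological replicates.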
row,SMILES,relative growth
1,CN(C)CC#Cc1cncc(C(=O)NN)c1,inactive: 1.03
2,Cc1ccc(S(=O)(=O)Nc2ccc3c(c2)CC(=O)N([C@H](C)CO)C[C@@H](C)[C@H](CN(C)CC2CC2)O3)cc1,inactive: 0.98
3,C[C@H](CO)N1C[C@H](C)[C@H](CN(C)Cc2ccccc2)Oc2ccc(NS(=O)(=O)c3cn(C)cn3)cc2CC1=O,inactive: 1.01
4,CO[C@H]1CN(C)C(=O)c2cc(NC(=O)Nc3ccccc3F)ccc2OC[C@@H](C)N(Cc2ccccc2C(=O)O)C[C@H]1C,inactive: 0.99
5,CON=C(C(=O)N[C@@H]1C(=O)N2C(C(=O)O)=C(CSc3nc(=O)c(O)nn3C)CS[C@H]12)c1csc(N)n1,active: 0.0335
6,Cc1ccc(S(=O)(=O)N(C)C[C@H]2OCCCC[C@H](C)Oc3ccc(NC(=O)Nc4ccc5c(c4)OCO5)cc3C(=O)N([C@H](C)CO)C[C@@H]2C)cc1,inactive: 1.07
7,CC(C)NC(=O)Nc1ccc2c(c1)C(=O)N([C@@H](C)CO)C[C@H](C)[C@@H](CN(C)S(=O)(=O)c1ccccc1)O2,inactive: 0.98
8,C[C@H](CO)N1C[C@H](C)[C@H](CN(C)C(=O)Nc2ccc(C(F)(F)F)cc2)OCCCC[C@H](C)Oc2ccc(NS(C)(=O)=O)cc2C1=O,inactive: 0.952
9,COc1ccccc1S(=O)(=O)N[C@@H]1CC[C@@H](CCNC(=O)C2CC2)O[C@@H]1CO,inactive: 1.01
10,Cc1ccc(S(=O)(=O)N(C)C[C@H]2Oc3ccc(NC(=O)CCN4CCOCC4)cc3CC(=O)N([C@H](C)CO)C[C@@H]2C)cc1,inactive: 1.01
11,Cc1noc(C)c1NC(=O)N(C)C[C@@H]1Oc2ccc(NS(=O)(=O)c3c(C)noc3C)cc2CC(=O)N([C@@H](C)CO)C[C@@H]1C,inactive: 1.04
12,O=C(CCCCCCC(=O)NO)NO,inactive: 0.961
13,Cc1cc([N+](=O)[O-])nn1CC(=O)NC(C)C,inactive: 1
14,Cc1ccc(S(=O)(=O)N[C@@H](Cc2ccccc2)C(=O)NCCn2cc(-c3ccc(C(=O)NO)s3)nn2)cc1,inactive: 1.01
15,COc1ccc(NC(=O)Nc2ccc3c(c2)C(=O)N([C@@H](C)CO)C[C@H](C)[C@@H](CN(C)S(=O)(=O)c2ccccc2)OCCCC[C@@H](C)O3)cc1,inactive: 1.07
16,C[C@@H]1CCCCO[C@@H](CN(C)S(=O)(=O)c2ccccc2)[C@@H](C)CN([C@@H](C)CO)C(=O)c2cc(NC(=O)Nc3ccccc3)ccc2O1,inactive: 1.04
17,O=C1c2c(O)cc(O[C@@H]3O[C@H](CO)[C@@H](O)[C@H](O)[C@@H]3O)cc2O[C@@H](c2ccc(O)cc2)[C@@H]1O,inactive: 1.05
18,C[C@H]1CCCCO[C@@H](CN(C)C(=O)Nc2ccccc2)[C@@H](C)CN([C@@H](C)CO)C(=O)c2cc(NS(=O)(=O)c3ccc(Cl)cc3)ccc2O1,inactive: 1.01
19,C[C@@H]1CCCCO[C@@H](CN(C)Cc2ccc(Cl)c(Cl)c2)[C@@H](C)CN([C@@H](C)CO)C(=O)c2cc(NC(=O)CCC(F)(F)F)ccc2O1,inactive: 0.799
20,C[C@H](CO)N1C[C@H](C)[C@@H](CN(C)CC2CCCCC2)Oc2ccc(NC(=O)Cn3cnnn3)cc2CC1=O,inactive: 0.944

row,SMILES,relative growth
1,COc1ccc(S(=O)(=O)Nc2ccc3c(c2)C(=O)N([C@@H](C)CO)C[C@@H](C)[C@@H](CN(C)Cc2ccc(Cl)c(Cl)c2)OCCCC[C@@H](C)O3)cc1,inactive: 1.02
2,Cc1noc(C)c1S(=O)(=O)Nc1ccc2c(c1)C(=O)N([C@@H](C)CO)C[C@H](C)[C@@H](CN(C)C(=O)Nc1cccc3ccccc13)OCCCC[C@H](C)O2,inactive: 1.02
3,CCCn1cnnc1CNC,inactive: 0.935
4,C[C@@H]1CCCCO[C@@H](CN(C)S(=O)(=O)c2ccccc2)[C@@H](C)CN([C@H](C)CO)C(=O)c2cc(NC(=O)Nc3cccc4ccccc34)ccc2O1,inactive: 1.02
5,CC(C)(C)OC(=O)C[C@@H]1CC=CC[C@H](CC(=O)N[C@@H](CO)Cc2ccccc2)C(=O)N2CCC[C@@H]2COC1=O,inactive: 1.03
6,O=C(NCc1ccco1)c1nc2ncccn2n1,inactive: 1.01
7,Cc1ccc(S(=O)(=O)N(C)C[C@H]2OCCCC[C@H](C)Oc3ccc(NS(C)(=O)=O)cc3C(=O)N([C@H](C)CO)C[C@@H]2C)cc1,inactive: 1.03
8,Cn1cnc(S(=O)(=O)N2C[C@H](O)COC[C@H]3O[C@@H](CC(=O)NC4Cc5ccccc5C4)CC[C@@H]32)c1,inactive: 1
9,CN(C)c1ccc(O)c2c1C[C@H]1C[C@H]3[C@H](N(C)C)C(=O)[C@@H](C(N)=O)C(=O)[C@@]3(O)C(=O)[C@H]1C2=O,active: 0.0587
10,CCS(=O)(=O)NC[C@@]12COC[C@H]1CN(c1cc(OC)ncn1)C2,inactive: 0.976
11,C[C@H](CO)N1C[C@H](C)[C@@H](CN(C)S(=O)(=O)c2ccc(F)cc2)Oc2ccc(NC(=O)Cn3cnnn3)cc2C1=O,inactive: 0.987
12,CC(C)(C)OC(=O)CC[C@@]12N=C(c3ccc(OCCCO)cc3)O[C@@H]1c1ccccc1CN(C(=O)c1ccccc1)C2=O,inactive: 1.01
13,C[C@H](CO)N1C[C@H](C)[C@@H](CN(C)CC2CCCCC2)Oc2c(NC(=O)c3ccc(-c4nccs4)cc3)cccc2C1=O,inactive: 0.969
14,C[C@@H]1CN([C@H](C)CO)C(=O)c2cccc(NS(=O)(=O)c3cn(C)cn3)c2O[C@H]1CN(C)C(=O)NC1CCCCC1,inactive: 0.988
15,COC(=O)NC(C(=O)NC(Cc1ccccc1)C(O)CN(Cc1ccc(-c2ccccn2)cc1)NC(=O)C(NC(=O)OC)C(C)(C)C)C(C)(C)C.O=S(=O)(O)O (centres undefined),inactive: 0.916
16,COc1ccc(NC(=O)Nc2ccc3c(c2)C(=O)N([C@@H](C)CO)C[C@@H](C)[C@@H](CN(C)Cc2ccc(Cl)c(Cl)c2)OCCCC[C@@H](C)O3)cc1,inactive: 1.02
17,CO[C@@]1(NC(=O)CSC[C@@H](N)C(=O)O)C(=O)N2C(C(=O)O)=C(CSc3nnnn3C)CS[C@@H]21,inactive: 1
18,Cc1ccc(OCc2ccc(Cl)cc2)c(C(C)(C)C)c1,inactive: 1.04
19,C[C@@H]1CN([C@@H](C)CO)C(=O)c2cccc(NS(=O)(=O)c3ccc(Cl)cc3)c2O[C@@H]1CN(C)Cc1ccc(C(=O)Nc2ccccc2N)cc1,inactive: 0.986
20,CN1CCN(C(=O)C[C@H]2CC[C@H]3[C@@H](COC[C@H](O)CN3Cc3ccc4c(c3)OCO4)O2)CC1,inactive: 0.921

row,SMILES,relative growth
1,Cc1noc(C)c1NC(=O)Nc1ccc2c(c1)C(=O)N([C@H](C)CO)C[C@H](C)[C@H](CN(C)Cc1ccc3c(c1)OCO3)OCCCC[C@@H](C)O2,inactive: 0.98
2,C[C@H]1CN([C@@H](C)CO)C(=O)Cc2cc(NS(=O)(=O)c3cn(C)cn3)ccc2O[C@H]1CN(C)S(=O)(=O)c1cn(C)cn1,inactive: 0.96
3,C[C@H]1CN([C@@H](C)CO)C(=O)c2cc(C#Cc3cccnc3)cnc2O[C@H]1CN(C)S(=O)(=O)c1ccccc1F,inactive: 0.986
4,NC(=O)[C@@H]1CCCN1C(=O)[C@H](Cc1c[nH]cn1)NC(=O)[C@@H]1CCC(=O)N1,inactive: 1.05
5,COc1ccc(S(=O)(=O)N(C)C[C@H]2Oc3ccc(NS(=O)(=O)c4cn(C)cn4)cc3CC(=O)N([C@@H](C)CO)C[C@H]2C)cc1,inactive: 0.997
6,O=C(O)CCCCCCC(=O)Nc1ccc([C@H]2O[C@@H](CSc3nc(-c4ccccc4)c(-c4ccccc4)o3)C[C@@H](c3ccc(CO)cc3)O2)cc1,inactive: 0.968
7,CC(=O)n1cc([C@@H]2C=C(C(=O)N3CCCCCCC3)O[C@H](OCc3ccc(CO)cc3)C2)c2ccccc21,inactive: 1.03
8,CCCCCCCCCC(=O)O,inactive: 1.02
9,C[C@H](CO)N1C[C@H](C)[C@H](CN(C)Cc2ccc(C(=O)O)cc2)Oc2ccc(NS(=O)(=O)c3ccccc3)cc2CC1=O,inactive: 0.981
10,Nc1nc2c(ncn2COC(CO)CO)c(=O)[nH]1.O,inactive: 1.05
11,C[C@@H]1CN([C@@H](C)CO)C(=O)c2cc(NC(=O)Nc3cccc4ccccc34)ccc2O[C@@H](C)CCCCO[C@@H]1CN(C)Cc1ccc2c(c1)OCO2,inactive: 1.02
12,C[C@H](CO)N1C[C@H](C)[C@@H](CN(C)Cc2ccccc2)Oc2ccc(NC(=O)CCN3CCOCC3)cc2CC1=O,inactive: 0.988
13,C[C@H](CO)N1C[C@H](C)[C@@H](CN(C)C(=O)c2cnccn2)Oc2ncc(C#CCN(C)C)cc2C1=O,inactive: 1.01
14,CC1(C)[C@@H](O[C@H]2O[C@H](C(=O)O)[C@@H](O)[C@H](O)[C@H]2O[C@@H]2O[C@H](C(=O)O)[C@@H](O)[C@H](O)[C@H]2O)CC[C@]2(C)[C@H]3C(=O)C=C4[C@@H]5C[C@@](C)(C(=O)O)CC[C@]5(C)CC[C@@]4(C)[C@]3(C)CC[C@@H]12,inactive: 0.984
15,COc1ccc(S(=O)(=O)N(C)C[C@H]2OCCCC[C@@H](C)Oc3ccc(NS(=O)(=O)c4cn(C)cn4)cc3C(=O)N([C@H](C)CO)C[C@@H]2C)cc1,inactive: 0.998
16,Cc1cccn2c(CN)cnc12,inactive: 1.06
17,CCC[C@@H](O)C#Cc1cnc2c(c1)C(=O)N([C@H](C)CO)C[C@H](C)[C@H](CN(C)C(=O)NC1CCCCC1)O2,inactive: 0.993
18,O=C(C[C@H]1CC[C@@H](NC(=O)Nc2ccc3c(c2)OCO3)[C@@H](CO)O1)NCCCN1CCOCC1,inactive: 1.02
19,C/C=C/c1ccc2c(c1)O[C@H](CN(C)S(=O)(=O)c1ccc(F)cc1)[C@H](C)CN([C@@H](C)CO)S2(=O)=O,inactive: 1
